According to publication PMC4336329 (PLoS ONE, 2015):
In all, about 310,000 compounds went through this assay and about 14,000 (4.5%) showed an effect of 50% or more. The effect is printed as a negative number. This is one part of the list.

Each compound was assayed against human ether-à-go-go-related gene (hERG) potassium channel (human, UniProt Q12809) (assay: primary screen, population patch clamp on CHO cells stably expressing hERG).
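Note: peak tail current of the secondary pulse compared with the same well before compound.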

Sequence of human ether-à-go-go-related gene (hERG) potassium channel (Q12809 whole entry, looked up): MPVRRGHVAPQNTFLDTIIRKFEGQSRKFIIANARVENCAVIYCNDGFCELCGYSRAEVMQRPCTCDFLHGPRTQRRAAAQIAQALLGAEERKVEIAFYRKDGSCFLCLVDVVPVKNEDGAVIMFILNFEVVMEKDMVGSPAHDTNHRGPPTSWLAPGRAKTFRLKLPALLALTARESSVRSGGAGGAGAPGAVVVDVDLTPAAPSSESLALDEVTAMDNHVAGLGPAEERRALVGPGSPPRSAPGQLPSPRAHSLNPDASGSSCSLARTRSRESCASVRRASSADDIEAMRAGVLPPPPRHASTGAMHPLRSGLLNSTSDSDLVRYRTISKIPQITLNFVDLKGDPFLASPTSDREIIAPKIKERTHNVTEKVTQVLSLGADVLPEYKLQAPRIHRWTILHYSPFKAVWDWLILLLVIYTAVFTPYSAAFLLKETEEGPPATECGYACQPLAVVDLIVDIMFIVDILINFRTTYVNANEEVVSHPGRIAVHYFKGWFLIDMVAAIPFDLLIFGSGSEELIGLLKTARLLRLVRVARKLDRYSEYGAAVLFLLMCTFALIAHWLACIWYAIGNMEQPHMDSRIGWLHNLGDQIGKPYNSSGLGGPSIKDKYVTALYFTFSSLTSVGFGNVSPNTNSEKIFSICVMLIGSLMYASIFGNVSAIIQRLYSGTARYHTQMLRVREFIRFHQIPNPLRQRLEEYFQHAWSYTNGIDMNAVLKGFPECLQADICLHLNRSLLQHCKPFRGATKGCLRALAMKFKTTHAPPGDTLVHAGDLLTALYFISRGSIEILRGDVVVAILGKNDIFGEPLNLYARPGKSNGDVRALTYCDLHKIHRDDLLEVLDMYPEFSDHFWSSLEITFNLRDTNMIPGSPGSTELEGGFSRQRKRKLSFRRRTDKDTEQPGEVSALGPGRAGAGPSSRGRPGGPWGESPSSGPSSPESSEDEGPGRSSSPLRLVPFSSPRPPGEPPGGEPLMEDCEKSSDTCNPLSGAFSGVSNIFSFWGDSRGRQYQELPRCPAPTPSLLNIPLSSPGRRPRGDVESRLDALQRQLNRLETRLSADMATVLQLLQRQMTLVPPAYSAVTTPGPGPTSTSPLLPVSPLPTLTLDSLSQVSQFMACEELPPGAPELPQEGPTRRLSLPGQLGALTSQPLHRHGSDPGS

Structure (SMILES)	hERG current change (%, negative = inhibition) at 10uM [%]
COc1ccc(N(CC(=O)Nc2ccccc2C(=O)NCCc2ccccc2)S(C)(=O)=O)cc1OC	-17.1
CCOC(=O)Cc1csc(NC(=O)CSc2nnc(C)n2C)n1	1.9
CCCCc1[nH]nc2c1C1(C(=O)N(CC)c3ccccc31)C(C#N)=C(N)O2 (stereo not drawn)	-7.27
CCc1ccc(N(C(=O)c2snc(C(N)=O)c2N)C(C(=O)NCC2CCCO2)c2cccs2)cc1 (stereo not drawn)	-1.13
Cc1ccc(OCC(=O)N2N=C(C(F)(F)F)CC2(O)C(C)(C)C)cc1C (stereo not drawn)	-15.9
Cc1cc(C)n(CCC(=O)N2CCCC(Nc3ccc(F)cc3)C2)n1 (stereo not drawn)	12.9
Cc1c(N=Cc2c(O)n(Cc3ccco3)c(=O)[nH]c2=O)c(=O)n(-c2ccccc2)n1C	7.89
Cc1noc(/C=C/N(C)C)c1S(=O)(=O)N(C)Cc1ccc(F)cc1	-3.28
CC1CN(c2ccc([N+](=O)[O-])cn2)CC(C)O1 (stereo not drawn)	-19.7
Cc1ccc(C)c(S(=O)(=O)N2CCCOC2CNC(=O)C(=O)NCCc2ccccc2)c1 (stereo not drawn)	4.01
COc1ccccc1NC(NC(=O)c1ccccn1)C(Cl)(Cl)Cl (stereo not drawn)	-3.32
COC(=O)c1ccccc1NC(=O)C1CC(=O)N(c2ccc(C)c(C)c2)C1 (stereo not drawn)	-13.1
CCN(CC(=O)Nc1ccccc1OC)C(=O)CN1C(=O)NC(C)(c2ccccc2)C1=O (stereo not drawn)	4.57
CCc1ccc(OCC(O)CN2CCN(CCO)CC2)cc1.Cl (stereo not drawn)	-15.3
CN1CCN(Cc2nc3c(c(=O)[nH]c(=O)n3C)n2CCc2ccccc2)CC1	-28.1
Cc1ccc2cc(CN(CCCO)S(=O)(=O)c3cccc4nsnc34)c(=O)[nH]c2c1C	-16.1
Cc1onc(COc2ccccc2O)c1Br	11.2
COc1ccc(N(C)S(=O)(=O)c2cccc(C(=O)Nc3nc(C)cs3)c2)cc1	-49.9
O=C(c1ccco1)N1CCN(C(=O)c2ccc(CS(=O)c3ccc(Cl)cc3)o2)CC1 (stereo not drawn)	-41
COc1ccc(S(=O)(=O)NC(CC(=O)N2CCC3(CC2)OCCO3)C(C)C)cc1 (stereo not drawn)	10.9
COc1cccc(-n2c(SCC(=O)Nc3nccs3)nnc2-c2ccoc2C)c1	-76.8

Structure (SMILES)	hERG current change (%, negative = inhibition) at 10uM [%]
O=C(N/N=C/c1cccnc1)c1cccc(NC(=O)c2cccc(Br)c2)c1	16.7
Cc1ccc(C)c(NC(NC(=O)c2cccnc2)C(Cl)(Cl)Cl)c1 (stereo not drawn)	4.57
COc1ccc(-n2nc(C(=O)NCC(=O)N3CCN(Cc4ccc5c(c4)OCO5)CC3)c3ccccc3c2=O)cc1OC	-11.9
Cc1sc(NC(=S)NC(=O)C2CCCCC2)c(C(N)=O)c1C	18.7
COC(=O)N(c1ccc(OC)cc1)P1(=S)OCCC(C)O1 (stereo not drawn)	21
CC1CC(C)(C)NC(=S)N1CCC(=O)N1CCN(Cc2ccccc2)CC1 (stereo not drawn)	19.8
O=C(CCC(=O)OCC(=O)c1ccccc1)Nc1cccc2cccnc12	-6.75
Nc1nc(=S)c2ncn(C3OC(CO)C(O)C3O)c2[nH]1 (stereo not drawn)	49.6
COc1ccc2c(c1OC)C(=O)N1C2SC[C@H]1C(=O)NC1CC1 (stereo partly drawn)	5.58
CCCCN1C(=O)c2ccc(C(=O)Nc3cccnc3)cc2C1=O	-6.77
CCOC(=O)c1c(NC(=O)CSc2nnc(-c3c[nH]c4ccccc34)n2CC)sc2c1CCCC2	23.1
O=C1C(=O)N(CCN2CCOCC2)C(c2ccc(Cl)c(Cl)c2)/C1=C(/O)c1ccc2c(c1)OCO2 (stereo not drawn)	6.5
CCOc1ccc(N2C(=O)CN(c3cccc4ccccc34)C2=S)cc1	1.18
O=C(CCNC(=O)Cn1ccc2ccccc2c1=O)NCCCN1CCOCC1	9.16
CCCCN1C(=O)NC(NC(=O)C2CC2)(C(F)(F)F)C1=O (stereo not drawn)	17.6
CC(C)CNS(=O)(=O)c1cc(C(=O)O)c(Cl)cc1Cl	8.41
COc1ccc(NC(=O)c2ccc(COc3ccc(C)cc3)o2)cc1	27
COc1cccc2cc(-c3cc(=O)oc4cc(C)c(O)cc34)oc12	11.4
CC12CNCC(C)(CN(C(c3ccccc3)c3ccccc3)C1)C2	-19.6
Cc1nc2nc(C)c(CCC(=O)N3CCOCC3)c(C)n2n1	-21
COc1ccc(/C=N/NC(=O)c2c(-c3ccccc3)noc2C)cc1	-14.3

Structure (SMILES)	hERG current change (%, negative = inhibition) at 10uM [%]
CN(CCCC(=O)Nc1ccncc1)S(=O)(=O)c1ccc(Cl)cc1	-53.8
O=C(Cn1cnc2ccccc2c1=O)NCCC(=O)Nc1ccc2c(c1)OCO2	16.4
CCc1cc(C(=O)c2ccc(OC)cc2)c(NC(=O)COCC(=O)O)s1	19.7
CC(=O)N1CN(S(=O)(=O)c2ccc(C)cc2)CC1C (stereo not drawn)	5.8
COc1cc2c3c(c1)C(C)CC(C)(C)N3C(=O)C2=O (stereo not drawn)	-20.7
COc1cc([C@H]2c3[nH]c4ccccc4c3C[C@H]3C(=O)N4[C@@H](c5cc(OC)c(OC)c(OC)c5)c5[nH]c6ccccc6c5C[C@H]4C(=O)N23)cc(OC)c1OC	-31.1
COc1ccc(C(=O)NCc2nnc(SCC(=O)NCc3ccc(F)cc3)o2)cc1	-12.4
CCc1nc(N)c(C#N)c(-c2ccco2)c1C	7.36
COc1cccc(NC(=O)COC(=O)/C=C/c2ccc(Cl)cc2Cl)c1	6.89
Cc1ccc(C(=O)N2CCCC(C(F)(F)F)C2)cc1S(=O)(=O)N1CCOCC1 (stereo not drawn)	-3.3
Cl.O=C(N1CCN(Cc2ccccc2)CC1)C12CC3CC(CC(C3)C1)C2	-8.81
O=C(c1ccc(Cl)c(Cl)c1)N1CCC(=O)N(C(COCc2ccc(Cl)cc2)Cc2ccccc2)CC1 (stereo not drawn)	-12.8
CC(C)N(C(=O)CC1ON(C)C(=O)N1c1ccc(Cl)cc1)C(C)C (stereo not drawn)	-31.9
CCN(Cc1cc2cc(OC)ccc2[nH]c1=O)C(=O)Cc1ccc(OC)cc1	-22.2
Cc1nc2ccc(S(=O)(=O)NC(C(=O)N3CCC(C)CC3)C(C)C)cc2s1 (stereo not drawn)	-0.0501
COc1ccc(N2C(=O)CC(NC3CCCCNC3=O)C2=O)cc1 (stereo not drawn)	8.59
CC(C)c1ccc(C(=O)NCCCN2CCN(CCCNC(=O)c3ccc(C(C)C)cc3)CC2)cc1	-84.3
CCOc1ccc(-c2cc(C)[n+](CCc3ccc(OC)c(OC)c3)c(-c3ccc(OCC)cc3)c2)cc1.[O-][Cl+3]([O-])([O-])[O-]	-83.1
O=C(NCc1cccnc1)c1ccc(S(=O)(=O)N2CCCCC2)cc1	-6.59
Cc1nonc1C(=O)N/N=C/c1ccncc1	5.11
CCN(CC)CC.NN1C(=O)/C(=C2/Sc3ccccc3N2CCCS(=O)(=O)O)SC1=S	-3.31

Structure (SMILES)	hERG current change (%, negative = inhibition) at 10uM [%]
COc1ccc2[nH]c(=O)c(CN(Cc3cccs3)S(=O)(=O)c3cccc4nsnc34)cc2c1	-8.11
O=C(c1cc2cc(F)ccc2[nH]1)N1CCC(Cc2ccccc2)CC1	19.7
CC1CCCCN1S(=O)(=O)c1coc(C(N)=O)c1 (stereo not drawn)	2.36
O=C(CSc1nnc(CNc2cccc(C(F)(F)F)c2)n1Cc1ccco1)NCc1ccco1	16.8
Cc1[nH]c(C)c(S(=O)(=O)N2CCN(c3ccccc3F)CC2)c1C(=O)N1CCCCC1	16.7
CCOC(=O)CN1C(=O)N[C@@H](c2cccs2)C(C(=O)OC)=C1C	-11
COc1ccc(OCCCC(=O)Nc2nnc(C3CCCO3)s2)cc1 (stereo not drawn)	3.96
O=C(NCc1cccnc1)c1ccc2c(c1)OCO2	5.94
COc1ccc(C(CNC(=O)Cc2ccc3ccccc3c2)N(C)C)cc1 (stereo not drawn)	-39.4
COc1ccc(C(=O)/C=C/Nc2cccc(C)n2)cc1OC	14.7
CCCCCCC(=O)c1c([O-])n(-c2ccccc2OC)c(=O)[nH]c1=O.C[NH+](C)C	12.7
COc1ccc(/C=N\Nc2ccc([N+](=O)[O-])cc2)c(C(=O)O)c1OC	-2.04
CCc1ccc(N/C(SC)=C(/C#N)C(N)=O)cc1	-4.57
COC1CCCN(C(=O)c2ccc(OC3CCN(CCc4ccccc4)CC3)cc2)C1 (stereo not drawn)	-11.6
Cn1c(CNC(=O)c2ccccc2)nnc1SCC(=O)N1CCN(c2ccccc2)CC1	1.77
Cc1ccc(N2CC(C(=O)OCc3ccccc3F)CC2=O)cc1 (stereo not drawn)	-7.25
Cc1c(Cl)cccc1NC(=S)NCCc1ccc(S(N)(=O)=O)cc1	-3.88
N#C/C(=C\c1c[nH]c2ccccc12)C(=O)NCC1CCCO1 (stereo not drawn)	10.4
COc1cc(OC)cc(C(=O)Nc2nnc(SCC(=O)NCc3ccco3)s2)c1	-0.238
COc1ccc(NC(=O)c2ccc(-n3cccn3)nc2)c(OC)c1	8.65
COc1ccc(/C=C(/NC(=O)c2ccccc2)C(=O)N/N=C/c2ccncc2)c(OC)c1	1.53
